The whole screen tested about 110,000 compounds, of which about 230 (0.21%) showed an effect of 50% or more. The list shows a part of the results.
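Also: 30 min substrate incubation versus DMSO and 10 µM JCP410 controls.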

For this assay, the target named is DPAP1 (Plasmodium falciparum, UniProt Q8IIJ9). The assay is described as follows: primary screen, percent inhibition; read by cleavage of a fluorogenic dipeptide substrate; higher = more effect of the substance. Also noted: species or system P. falciparum D10 trophozoite lysates; single well.
DPAP1, sequence (Q8IIJ9 whole entry, looked up): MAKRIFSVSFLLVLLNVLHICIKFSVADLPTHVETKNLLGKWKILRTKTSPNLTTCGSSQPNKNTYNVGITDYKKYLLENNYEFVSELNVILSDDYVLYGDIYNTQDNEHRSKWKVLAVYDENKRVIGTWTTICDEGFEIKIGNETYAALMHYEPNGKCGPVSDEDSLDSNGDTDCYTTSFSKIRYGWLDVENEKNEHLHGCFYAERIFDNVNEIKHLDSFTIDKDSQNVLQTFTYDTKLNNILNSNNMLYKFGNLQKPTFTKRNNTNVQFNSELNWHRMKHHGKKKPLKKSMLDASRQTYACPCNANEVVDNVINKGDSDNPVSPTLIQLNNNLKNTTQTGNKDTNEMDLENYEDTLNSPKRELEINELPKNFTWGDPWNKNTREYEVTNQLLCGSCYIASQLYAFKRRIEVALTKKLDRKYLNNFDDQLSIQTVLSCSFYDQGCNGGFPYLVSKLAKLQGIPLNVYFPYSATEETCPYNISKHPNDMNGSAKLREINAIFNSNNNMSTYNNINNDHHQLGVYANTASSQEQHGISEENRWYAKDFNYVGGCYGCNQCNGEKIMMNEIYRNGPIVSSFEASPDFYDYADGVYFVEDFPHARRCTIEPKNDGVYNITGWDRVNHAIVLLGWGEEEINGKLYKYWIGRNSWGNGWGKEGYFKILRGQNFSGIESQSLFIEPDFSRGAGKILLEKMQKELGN
On to `CCCCOC(=O)C1C2c3ccccc3C(c3ccccc32)C1C(=O)O` (stereo not drawn), for which the “% Inhibition @ 10 uM” value is on record as -0.415%. The value for `O=C1c2ccccc2C(=O)N1CC(=O)n1nnc2ccccc21` was 2.7%; that for `CCN(CC)C(=O)Cn1cc(S(=O)(=O)Cc2cccc(C(F)(F)F)c2)c2ccccc21` was 4.29%; that for `Cc1ccc(C(=O)N[C@@H](Cc2cc(I)c(O)c(I)c2)C(=O)NCC#N)cc1` was -6.46%. Turning to `CSc1nsc(SCC(=O)N2CCOCC2)n1`, the “% Inhibition @ 10 uM” value is listed as -4.75%. With `CCOCCCn1c(=N)c(C(=O)NCc2ccccc2)cc2c(=O)n3cccc(C)c3nc21`, the “% Inhibition @ 10 uM” value amounted to 3.6%. `CC(C)(C)NC(=O)CSc1ncccn1`: the “% Inhibition @ 10 uM” value is -1.33%.

With `CCOc1ccc(NC(=O)CSCC(=O)Nc2cccc(C)c2C)cc1`, the “% Inhibition @ 10 uM” value is -2.09%. As to `Brc1ccccc1-c1nnc2sc(-c3cc4ccccc4o3)nn12`, the “% Inhibition @ 10 uM” value turned out to be 4.47%. Consider `CCN1CCN(C2CCN(Cc3ccccc3)CC2)CC1`, for which the “% Inhibition @ 10 uM” value is given as 1.57%.

As to `COc1ccc(-n2c(SCC(=O)N3CCOCC3)nc3sc4c(c3c2=O)CCC4)cc1`, the “% Inhibition @ 10 uM” value is on record as 9.91%.

`CCOC(=O)c1sc2nc3c(cc2c1N)CCC3`: the “% Inhibition @ 10 uM” value is listed as -5.61%. Take `CS(=O)(=O)NCCOc1ccc(S(=O)(=O)NCCc2ccccc2)cc1`: the “% Inhibition @ 10 uM” value is -2.19%. `CCCCN1C(=O)C(NC(=O)C2CCCCC2)(C(F)(F)F)C2=C1CC(C)(C)CC2=O` (stereo not drawn): the “% Inhibition @ 10 uM” value was 1.91%. `CCCc1noc2c1C(=O)C(C(=O)OC)C(C)(C)C2` (stereo not drawn): the “% Inhibition @ 10 uM” value is -4.43%. As to `CCCNC(=O)c1cc2c(=O)n3ccccc3nc2n1C`, the “% Inhibition @ 10 uM” value was -1.55%. For `CC(c1ccccc1)C1CC(=O)N(Cc2ccco2)C1=O` (stereo not drawn), the “% Inhibition @ 10 uM” value is reported as -0.958%. Take `COc1ccc2nc(C)sc2c1NC(C)=O`: the “% Inhibition @ 10 uM” value is given as -4.58%. The value for `Fc1cccc(Cl)c1Cn1c(C2CCCO2)nc2ccccc21` (stereo not drawn) was -1.22%; that for `CC1(C)CNC(=O)c2sc(N)nc2C1` was -3.44%; that for `Cc1nc(O)cc2c1[nH]c1ccccc12` was 4.33%. As to `CCCCN(CCNC(=O)Cn1ncc2c3ccccc3nc-2c1O)Cc1ccco1`, the “% Inhibition @ 10 uM” value is given as 7.2%. For `CC(C)C[C@H](NC(=O)OCc1ccccc1)C(=O)N[C@H](C#N)Cc1ccc(O)cc1`, the “% Inhibition @ 10 uM” value was -10.1%. The value for `Cc1ccc(Cl)cc1NC(=O)CN(c1ccc2c(c1)OCCO2)S(=O)(=O)c1ccccc1` was 2.63%; that for `O=c1[nH]c(=O)c2nc(Br)n(C3OC(CO)C(O)C3O)c2[nH]1` (stereo not drawn) was -10.4%; that for `COc1cc(OC)c(OC)cc1CN1CCN(Cc2ccccc2C(F)(F)F)CC1` was -5.82%. The value for `O=C(O)CCCn1c(=O)cc(O)c2ccccc21` was 1.03%; that for `Cc1ccc(C(=O)C2=C(O)C(=O)N(CC3CCCO3)C2c2cccc(Br)c2)o1` (stereo not drawn) was -15.4%.

Consider `CC1=C(C(=O)NCc2ccccc2)C(c2cccn2C)n2nnnc2N1` (stereo not drawn), for which the “% Inhibition @ 10 uM” value worked out at 2.73%. For `O=C(Nc1ccc2ccccc2c1)c1cccs1`, the “% Inhibition @ 10 uM” value is given as -9.33%. The value for `CC(C)CCOc1ccc(C2NC(=O)NC2=O)cc1` (stereo not drawn) was -2.63%; that for `CCN(CC)C(=O)Cc1ccc(OC)cc1` was 3.61%; that for `CCCOc1ccc(NCC(=O)Nc2ccc(C)cc2)cc1` was 10.6%. As to `CCC(Cc1ccccc1)NC(=O)c1cnc2ccc(S(=O)(=O)N3CCC(C)CC3)cc2c1O` (stereo not drawn), the “% Inhibition @ 10 uM” value is listed as -3.78%.

Turning to `O=C(Cc1ccccc1)Nc1ccc(NC(=O)Cc2ccccc2)cc1`, the “% Inhibition @ 10 uM” value is on record as 2.6%.

`O=C(CSc1nc2nccnc2c(=O)n1Cc1ccc2c(c1)OCO2)NCCc1ccccc1`: the “% Inhibition @ 10 uM” value was -5.66%. Consider `C=CCOc1c(Br)cc(CNCCO)cc1OC`, for which the “% Inhibition @ 10 uM” value is recorded as 6.98%. Turning to `CCc1ccc(-n2c(SCC(=O)NCC3CCCO3)nc3nnc(C)c-3c2N)cc1` (stereo not drawn), the “% Inhibition @ 10 uM” value is reported as 22.7%. For the compound `COC(=O)c1cc(C)nc2c1c(C)nn2-c1ccccc1`, the “% Inhibition @ 10 uM” value is -1.57%. Turning to `O=C(NCc1ccc(Cl)cc1)c1cccc2c1C(=O)N(C1CCCCC1)C2`, the “% Inhibition @ 10 uM” value is listed as 0.708%. The value for `Cc1nn(C)cc1CN(C)C(=O)c1cc2nc(-c3ccccc3)cc(C(F)(F)F)n2n1` was 4.59%. Take `Cc1ccccc1CNC(=O)CN(c1ccccc1Cl)S(=O)(=O)c1ccccc1`: the “% Inhibition @ 10 uM” value is 5.29%. `S=C1NCN(Cc2ccccc2)CN1C1CCCCC1`: the “% Inhibition @ 10 uM” value was -5.62%. On to `CN(C)CCCNc1ncnc2c1c(-c1ccccc1)cn2-c1ccc(F)cc1`, for which the “% Inhibition @ 10 uM” value is on record as 6.44%. As for `CCc1ccccc1NC(=O)CSCc1ccccc1`, the “% Inhibition @ 10 uM” value is -3.11%. The value for `O=C(COc1ccc(Cl)cc1Cl)NC(Cc1ccccc1)C(=O)O` (stereo not drawn) was -2.66%. Take `COc1ccc(CCNS(=O)(=O)c2ccc3[nH]c4c(c3c2)CCCC4)cc1OC`: the “% Inhibition @ 10 uM” value is -3.88%. For `CCC(C)NC(=O)c1cnn(-c2cccc(C)c2)c1-n1cccc1` (stereo not drawn), the “% Inhibition @ 10 uM” value is given as -4.36%. On to `CCN1C(=O)N/C(=C/c2cccc(OC)c2OC(C)C)C1=O`, for which the “% Inhibition @ 10 uM” value is on record as -0.473%. The value for `Cn1c(=O)n(Cc2cccc(Cl)c2)c(=O)c2c1ncn2Cc1ccccc1` was -2.28%; that for `CCc1nn(CC(=O)NC(COc2ccc(OC)cc2)C(C)C)c(=O)c2ccccc12` (stereo not drawn) was -2.84%.
